According to PubChem BioAssay AID360 (National Center for Advancing Translational Sciences (NCATS), 2006):
Out of some 48,000 compounds screened, about 550 (1.1%) were called active. The shares of active, inactive and inconclusive entries below differ from those in the screen. Rule as the data show it: active = potency below about 15 µM; inconclusive = mostly about 16 µM to 33 µM; inactive = weaker than that. Potencies of inconclusive entries are left out as doubtful fits.
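Also: the screen sought inhibitors.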
Potency is read from the fitted curve at half-maximal effect.

These molecules were tested against Lysosomal acid glucosylceramidase (Homo sapiens) (UniProt P04062) (assay: Glucocerebrosidase). Details: purified enzyme, resorufin glucoside fluorescence (screen aimed at inhibitors), 20 min.
UniProt P04062, sequence (P04062 whole entry, looked up): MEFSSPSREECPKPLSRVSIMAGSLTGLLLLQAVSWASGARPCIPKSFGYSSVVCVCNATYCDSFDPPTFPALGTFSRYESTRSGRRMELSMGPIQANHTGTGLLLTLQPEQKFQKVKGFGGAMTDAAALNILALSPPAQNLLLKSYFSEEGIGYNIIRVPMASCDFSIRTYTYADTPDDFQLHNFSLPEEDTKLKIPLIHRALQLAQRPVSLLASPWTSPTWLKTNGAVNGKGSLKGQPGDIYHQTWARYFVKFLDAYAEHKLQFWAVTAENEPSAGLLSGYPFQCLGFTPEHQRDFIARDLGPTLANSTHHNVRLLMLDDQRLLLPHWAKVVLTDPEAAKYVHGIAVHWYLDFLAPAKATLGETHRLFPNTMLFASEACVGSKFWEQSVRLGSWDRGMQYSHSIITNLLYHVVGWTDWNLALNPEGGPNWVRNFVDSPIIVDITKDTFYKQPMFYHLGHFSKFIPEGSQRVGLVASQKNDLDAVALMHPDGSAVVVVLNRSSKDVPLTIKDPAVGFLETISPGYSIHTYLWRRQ
Procedure, shortened: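 Compounds titrated against 0.2 nM normal enzyme, 30 uM resorufin beta-D-glucopyranoside substrate, citrate/phosphate buffer with taurocholate and tween-20, pH 5.9. Reaction ran 20 min at room temperature; fluorescence (Ex 548/Em 600) gave AC50.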
For O=C(NCc1cccs1)c1ccc(N2CCCCC2)nc1, the Potency was “inactive”.
For Cn1c(Cn2nnc3ccccc32)nnc1SCC(=O)N1c2ccccc2CCc2ccccc21, the Potency was inactive: > 76.9 µM.
With COc1ccc(CNC(=O)COC(=O)c2ccc3c(c2)OCCO3)cc1 the Potency was inactive: > 76.9 µM.
With CC(=O)Nc1ccc(Nc2nc(C)nc3c2oc2ccccc23)cc1 the Potency was inconclusive [decreasing].
For COC(=O)c1ccc(-c2ccc(CNCC(O)c3ccccc3)o2)cc1 (stereo unspecified), the Potency was inconclusive [decreasing].
With CCc1nnc(NC(=O)CSc2nnc(-c3cc4ccccc4cc3O)n2CCOC)s1 the Potency was inconclusive [decreasing].
In the case of CSC1=Nc2sc3c(c2C2=NCCN12)CCCC3, the Potency is reported as active: 6.42 µM.
With Cc1onc(-c2ccccc2Cl)c1C(=O)Nc1ccc(-c2nnc3n2CCCCC3)cc1 the Potency was inconclusive [decreasing].
With CN1CCN(S(=O)(=O)c2ccc(N(C)Cc3cccs3)nc2)CC1 the Potency was active: 4.48 µM.
O=C(c1cccs1)N1CCN(Cc2ccncc2)CC1 was tested, and the Potency was inactive: > 76.9 µM.
In the case of O=C(Nc1nc(-c2ccc(S(=O)(=O)N3CCCC3)cc2)cs1)c1cccs1, the Potency is reported as inconclusive [decreasing].
With Cc1noc(C)c1S(=O)(=O)Nc1ccc(C(=O)N2CCN(c3ccc(Cl)cc3)CC2)cc1 the Potency was inconclusive [decreasing].
For CCOC(=O)N1CCN(C(=O)CN(Cc2ccc(Cl)cc2)S(C)(=O)=O)CC1, the Potency was inconclusive [decreasing].
Cc1ccc(C)n1CCN1CCN(CC(=O)Nc2cc(C(F)(F)F)ccc2Cl)CC1 was tested, and the Potency was inconclusive [decreasing].
Cc1onc(-c2ccccc2)c1C(=O)Nc1nc2c(s1)CCCC2 was tested, and the Potency was inconclusive [decreasing].
CCCN(CCC)S(=O)(=O)c1ccc(C(=O)Nc2nnc(CSC)o2)cc1 was tested, and the Potency was inconclusive [decreasing].
With O=C1NC(Nc2nccs2)(C(F)(F)F)C(=O)N1CCc1ccccc1 (stereo unspecified) the Potency was inconclusive [decreasing].
With CSc1sc(C)cc1C1C(C#N)=C(N)N(c2cccnc2)C2=C1C(=O)CCC2 (stereo unspecified) the Potency was inconclusive [decreasing].
For CCCCOc1cccc(C(=O)N(Cc2cccs2)C2CCS(=O)(=O)C2)c1 (stereo unspecified), the Potency was inconclusive [decreasing].
With COc1ccc(-c2nc3ccccc3c(=O)n2CCCN2CCOCC2)cc1 the Potency was inactive: > 76.9 µM.
In the case of O=C(NCc1cccs1)c1cc2c(s1)CS(=O)(=O)C2, the Potency is reported as inconclusive [decreasing].
For O=C(NCCN1CCOCC1)NC1(C(F)(F)F)Oc2ccc(Cl)cc2O1 (stereo unspecified), the Potency was active: 9.78 µM.
In the case of Cc1ccc(C2C3CSCC=C3C(C#N)=C(N)C2(C#N)C#N)cc1 (stereo unspecified), the Potency is reported as active: 11.8 µM.
COc1cccc(-n2nnnc2SCC(=O)Nc2cccc(NC(C)=O)c2)c1 was tested, and the Potency was inconclusive [decreasing].
With Cc1nnc(SCc2ccc(Cl)cc2)n1CC1CCCO1 (stereo unspecified) the Potency was inconclusive [decreasing].
For Cn1c(C(=O)N2CCN(c3nc4ccccc4s3)CC2)cc2sccc21, the Potency was inconclusive [decreasing].
In the case of Cc1ccc(Cl)cc1N1CCN(C(=O)c2ccc(NS(=O)(=O)c3c(C)noc3C)cc2)CC1, the Potency is reported as inconclusive [decreasing].
In the case of COc1ccc(-c2nn(-c3ccccc3)cc2C(=O)NCCCn2ccnc2)cc1, the Potency is reported as inconclusive [decreasing].
For Cc1noc(C)c1S(=O)(=O)Nc1ccc(C(=O)N2CCc3ccccc3C2)cc1, the Potency was inconclusive [decreasing].
In the case of CC(C)CN(C(=O)COC(=O)c1cc2c(s1)CCC2)C1CCS(=O)(=O)C1 (stereo unspecified), the Potency is reported as inconclusive [decreasing].
In the case of CCOCCc1nnc(NC(=O)c2cccs2)s1, the Potency is reported as inconclusive [decreasing].
With CCCCN(C)C(=O)CCCCn1c(=O)[nH]c2cc(OCC)c(OCC)cc2c1=O the Potency was inactive: > 76.9 µM.
In the case of Cc1cc(C2=CC(C)(c3cc(C)oc3C)Nc3nc(C(F)(F)F)nn32)c(C)o1 (stereo unspecified), the Potency is reported as inconclusive [decreasing].
Cn1c(CN2CCCC2)nc2cc(NC(=O)Nc3ccccc3)ccc21 was tested, and the Potency was inconclusive [decreasing].
For CN(C)C(CNC(=O)CCCc1c[nH]c2ccccc12)c1ccco1 (stereo unspecified), the Potency was inconclusive [decreasing].
For CCOc1ccc(/C(O)=C2/C(=O)C(=O)N(CCCn3ccnc3)C2c2cccs2)cc1Cl (stereo unspecified), the Potency was inconclusive [decreasing].
For Cc1cc2ccccc2c(=O)n1CC(=O)Nc1ccc2c(c1)OCO2, the Potency was inactive: > 76.9 µM.
CCC(=O)N1CCc2cc(Br)cc(S(=O)(=O)N3CCN(c4ccccn4)CC3)c21 was tested, and the Potency was inactive: > 76.9 µM.
For O=C(Nc1ccc(S(=O)(=O)NCc2ccco2)cc1)c1ccc2ccccc2n1, the Potency was inconclusive [decreasing].
c1ccc2c(c1)Cn1c-2nc2ccccc21 was tested, and the Potency was inconclusive [decreasing].
N#Cc1nc(N2CCCCC2)nc(N2CCOCC2)n1 was tested, and the Potency was inconclusive [decreasing].
With Cc1ccc2nc(NC(=O)C3CCCN(S(=O)(=O)c4cccc5nonc45)C3)sc2c1 (stereo unspecified) the Potency was inconclusive [decreasing].
For Cc1ccc(S(=O)(=O)c2nc(-c3ccccc3)oc2NCCN2CCOCC2)cc1, the Potency was inconclusive [decreasing].
COc1ccc(CNC(=O)Cc2nn(C)c(=O)c3ccccc23)cc1 was tested, and the Potency was inconclusive [decreasing].
For O=C(CSc1n[nH]c(-c2ccccc2)n1)NC(=O)NCc1ccco1, the Potency was inconclusive [decreasing].
In the case of Cc1nc(Sc2nnnn2C)c2c3c(sc2n1)CCC3, the Potency is reported as inactive: > 76.9 µM.
For CN1CCN(S(=O)(=O)c2cccc(S(=O)(=O)c3ccc(Cl)cc3)c2)CC1, the Potency was inconclusive [decreasing].
CCCOc1ccc(C(=O)NCCCn2ccnc2)cc1 was tested, and the Potency was inconclusive [decreasing].
For CC(C)n1c(NCc2ccc(N(C)C)cc2)nc2ccccc21, the Potency was inactive: > 76.9 µM.
With COc1ccc(Nc2oc(COc3cccc(C)c3)nc2C#N)cc1 the Potency was inconclusive [decreasing].
With Cc1ccc(C)c(NC(=O)CSc2n[nH]c(-c3ccncc3)n2)c1 the Potency was inconclusive [decreasing].
In the case of CN(Cc1ccccc1)C(=O)CSc1nc2ccccc2c(=O)n1Cc1ccco1, the Potency is reported as inconclusive [decreasing].
In the case of O=C(c1cccc(C(=O)N2CCN(Cc3ccccc3)CC2)c1)N1CCN(Cc2ccccc2)CC1, the Potency is reported as inactive: > 76.9 µM.
With CCOc1ccc2nc(NC(=O)CS(=O)(=O)c3ccccc3)sc2c1 the Potency was inconclusive [decreasing].
For CN(C)CCNC(=O)c1ccc(COCC(F)(F)F)cc1, the Potency was inconclusive [decreasing].
In the case of CCN(CCNC(=O)CS(=O)(=O)Cc1nc(-c2cccc(OC)c2)oc1C)c1ccccc1, the Potency is reported as inconclusive [decreasing].
In the case of O=C(NCc1n[nH]c(=S)n1-c1cccc(Cl)c1)c1ccc(S(=O)(=O)N2CCCC2)cc1, the Potency is reported as inconclusive [decreasing].
In the case of Cc1ccc2[nH]c3c(c2c1)CN(C(=O)CN1CCN(c2ccccc2F)CC1)CC3, the Potency is reported as inconclusive [decreasing].
For Nc1ncnc2nc(SCCc3ccccc3)[nH]c12, the Potency was inconclusive [decreasing].
In the case of Cc1cc(C)c(S(=O)(=O)Nc2ccc(O)cc2)cc1C, the Potency is reported as inconclusive [decreasing].
In the case of O=C(Nc1ccc(Nc2ccccc2)cc1)N1CCOCC1, the Potency is reported as active: 2 µM.
CC(=O)Oc1ccc(NC(=O)Cc2ccccc2)cc1 was tested, and the Potency was inactive: > 76.9 µM.
In the case of O=C(NC1=NCCS1)NC12CC3CC(CC(C3)C1)C2, the Potency is reported as active: 13.6 µM.
For C=CCn1c2ccccc2c2nnc(SC(CC)C(=O)Nc3nc(C)c(C(=O)OCC)s3)nc21 (stereo unspecified), the Potency was inconclusive [decreasing].
In the case of Fc1cccc(C2CC(c3cccc(Br)c3)Nc3nnnn32)c1 (stereo unspecified), the Potency is reported as inconclusive [decreasing].
In the case of Cc1ccc(-c2cc(C(=O)NCc3ccco3)c3ccccc3n2)o1, the Potency is reported as inactive: > 76.9 µM.
For Fc1cc2nc(-c3ccncc3)[nH]c2cc1F, the Potency was active: 13.5 µM.
For CC(Oc1ccc(Cl)cc1Cl)C(=O)Nc1ccc(N2CCN(C)CC2)cc1 (stereo unspecified), the Potency was inconclusive [decreasing].
COc1ccc(S(=O)(=O)NCC2CCC(C(=O)N3CCC4(CC3)OCCO4)CC2)cc1 (stereo unspecified) was tested, and the Potency was inconclusive [decreasing].
For c1coc(-c2nc3ccccc3nc2-c2ccco2)c1, the Potency was inactive: > 76.9 µM.
For CCOc1ccc(C2/C(=C(/O)c3ccc(Cl)cc3)C(=O)C(=O)N2CCCN(C)C)cc1OC (stereo unspecified), the Potency was inactive: > 76.9 µM.
For O=C(CC1(O)C(=O)Nc2cc(Cl)cc(Cl)c21)c1ccccc1O (stereo unspecified), the Potency was inactive: > 76.9 µM.
In the case of COc1ccc(CN(CCCN2CCOCC2)C(=O)Nc2cccc(Cl)c2)cc1OC, the Potency is reported as inconclusive [decreasing].
CCC(C)(C)N1CC(=O)N(Cc2ccccc2)C(c2ccc(OC)cc2)C1=O (stereo unspecified) was tested, and the Potency was inactive: > 76.9 µM.
In the case of COc1cc2c(C#N)c(N3CCCCC3)nc(N)c2c(N)n1, the Potency is reported as inconclusive [decreasing].
In the case of CN(C)c1ccc(NC(=O)CSc2nc3ccccc3c(=O)n2C2CCCCC2)cc1, the Potency is reported as inconclusive [decreasing].
